{"source": "PubChem BioAssay AID1452", "about": "(National Center for Advancing Translational Sciences (NCATS), 2008)", "note": "About 190 (0.13%) of roughly 150,000 compounds were called active. Inconclusive results, whose numbers are uncertain, are shown with a selection of clear calls. The call rests on the fitted dose curve; in most records, active means well fitted inhibition curve with a large enough effect; inconclusive means small, poorly fitted or top-dose-only effect; inactive means flat fitted curve, though single readings scatter. Potencies beside an inconclusive call are fits to weak or partial responses and may not hold up. On the % scale 0 is the no-effect control and ±100 the full control effect; potency means the concentration at half of the fitted maximal effect; tags describe the fitted curve by direction and shape."}
{"molecular_target": "Polyunsaturated fatty acid lipoxygenase ALOX12 (Homo sapiens) (UniProt P18054)", "sequence (P18054 whole entry, looked up)": "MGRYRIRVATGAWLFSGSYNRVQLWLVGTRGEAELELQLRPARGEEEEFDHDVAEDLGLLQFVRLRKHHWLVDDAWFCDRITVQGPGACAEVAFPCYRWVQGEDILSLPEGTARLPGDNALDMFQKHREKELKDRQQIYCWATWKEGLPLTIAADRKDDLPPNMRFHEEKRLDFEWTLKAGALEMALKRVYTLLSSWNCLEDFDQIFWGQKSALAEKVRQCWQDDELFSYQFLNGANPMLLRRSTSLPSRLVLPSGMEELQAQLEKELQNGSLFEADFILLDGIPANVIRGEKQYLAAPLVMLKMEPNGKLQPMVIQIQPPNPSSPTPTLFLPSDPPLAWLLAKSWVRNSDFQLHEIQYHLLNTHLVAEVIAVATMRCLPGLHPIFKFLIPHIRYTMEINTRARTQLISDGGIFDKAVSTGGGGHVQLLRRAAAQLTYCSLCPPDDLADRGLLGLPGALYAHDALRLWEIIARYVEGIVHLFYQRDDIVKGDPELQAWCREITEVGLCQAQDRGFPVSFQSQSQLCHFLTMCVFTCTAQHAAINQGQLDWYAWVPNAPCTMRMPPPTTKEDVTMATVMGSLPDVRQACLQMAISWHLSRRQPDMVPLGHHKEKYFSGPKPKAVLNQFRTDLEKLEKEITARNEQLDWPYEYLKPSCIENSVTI", "experiment": "qHTS Assay for Inhibitors of 12-hLO (12-human lipoxygenase); further: nearly all actives have a fitted effect of over 55% in size", "settings": "purified 12-hLO, xylenol orange hydroperoxide absorbance; series mostly up to 57.1 µM; activity change, negative = inhibition: at the top concentration", "procedure,_shortened": "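Purified human 12hLO (150 nM final) was preincubated with compounds for 15 min at room temperature in 25 mM Hepes pH 7.0, 0.01% Triton X-100, then reacted with 40 uM arachidonic acid for 30 min. Hydroperoxide was detected with ferrous iron/xylenol orange.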"}
{"compound": "O=C(Nc1cccc(F)c1)c1ccc(-c2ccccc2C(F)(F)F)o1", "activity change, negative = inhibition": "inactive: 2.14%"}
{"compound": "CCCCNC(=S)NCc1ccc2[nH]c(C)cc2c1", "Potency": "inconclusive: 39.8 µM [inhibitor, single point]"}
{"compound": "Cc1ccc2c(c1)-c1c(ssc1=S)C(C)(C)N2C(=O)CN1C(=O)c2ccccc2C1=O", "Potency": "inconclusive: 22.4 µM [inhibitor, partial curve]"}
{"compound": "CC(Oc1ccc(Cl)cc1Cl)C(=O)/C=C/N(C)C", "note": "(stereo unspecified)", "Potency": "inconclusive: 8.91 µM [inhibitor, partial curve]"}
{"compound": "CC1CC(C)(C)N2C(=O)C3(Nc4ccccc4S3)c3cccc1c32", "note": "(stereo unspecified)", "activity change, negative = inhibition": "inactive: -16.3%"}
{"compound": "CCC(=O)NC(c1cccs1)c1cc([N+](=O)[O-])c2cccnc2c1O", "note": "(stereo unspecified)", "Potency": "active: 2.82 µM"}
{"compound": "COc1cc(NC(=S)NC(=O)c2cc(C)cc(C)c2)ccc1NC(=O)c1cccs1", "Potency": "inconclusive: 3.55 µM [inhibitor, single point]"}
{"compound": "O=C1OC2(c3ccc(O)cc3Oc3cc(O)ccc32)c2c1c(-c1ccccc1)c(-c1ccccc1)c(-c1ccccc1)c2-c1ccccc1", "Potency": "inconclusive: 3.16 µM [inhibitor, partial curve]"}
{"compound": "Cc1ccccc1NC(=S)NC(=O)CCc1ccccc1", "Potency": "inconclusive: 15.8 µM [inhibitor, partial curve]"}
{"compound": "Cc1ccc(C(=O)NC(=S)Nc2c(C)ccc3nsnc23)cc1", "Potency": "inconclusive: 12.6 µM [inhibitor, partial curve]"}
{"compound": "COc1ccc(COC2OC[C@]3(C)[C@H]4C5=C(CN3C(=O)OC(C)(C)C)[C@H](C)C(CO)C(CO)C5CC[C@@H]24)cc1", "note": "(stereo partly specified)", "activity change, negative = inhibition": "inactive: -0.0194%"}
{"compound": "CC(C)(C)C1C/C(=C/c2ccco2)C(=O)/C(=C/c2ccco2)C1", "note": "(stereo unspecified)", "Potency": "inconclusive: 14.1 µM [inhibitor, partial curve]"}
{"compound": "O=C(Nc1nc(-c2ccco2)c(-c2ccco2)s1)C1CC(=O)N(c2ccc3c(c2)OCCO3)C1", "note": "(stereo unspecified)", "Potency": "inconclusive: 14.1 µM [inhibitor, partial curve]"}
{"compound": "CC(C)n1c(C(=O)OCC(=O)NCc2ccc3c(c2)OCO3)cc2sccc21", "Potency": "inconclusive: 17.8 µM [inhibitor, partial curve]"}
{"compound": "COc1nccnc1NS(=O)(=O)c1ccc(NC(=S)NC(=O)c2ccc(F)c(F)c2)cc1", "Potency": "inconclusive: 20 µM [inhibitor, partial curve]"}
{"compound": "O=C(/C=C/NNC(=O)c1ccccc1)c1ccc(Br)cc1", "activity change, negative = inhibition": "inactive: -28.9%"}
{"compound": "N#Cc1ccc(C(c2nnnn2Cc2ccccc2)N2CCCC2)cc1", "note": "(stereo unspecified)", "activity change, negative = inhibition": "inactive: 1.78%"}
{"compound": "CN(C)c1nc2c(c(=O)[nH]c(=O)n2C)n1Cc1ccccc1Br", "activity change, negative = inhibition": "inactive: 3.44%"}
{"compound": "O=C(NC(=S)Nc1cccc(Cl)c1N1CCCCC1)c1ccco1", "Potency": "inconclusive: 25.1 µM [inhibitor, partial curve]"}
{"compound": "CC(C)CCNC(=S)Nc1ccc(Br)cc1", "Potency": "inconclusive: 25.1 µM [inhibitor, single point]"}
{"compound": "CSCCC(NC(=O)c1ccc(Cl)cc1)C(=O)OCC(=O)Nc1ccc(C#N)cc1", "note": "(stereo unspecified)", "Potency": "inconclusive: 5.01 µM [inhibitor, partial curve]"}
{"compound": "COc1ccc(OC)c(/C(O)=C/C(=O)C(=O)Nc2ccccc2OC)c1", "activity change, negative = inhibition": "inactive: -0.408%"}
{"compound": "Cc1cccc(S(=O)(=O)C(C#N)c2nc3ccccc3nc2N2CC(C)OC(C)C2)c1", "note": "(stereo unspecified)", "activity change, negative = inhibition": "inactive: -13.6%"}
{"compound": "CCS/C(N)=N/N=C/c1cc(C)ccc1O", "activity change, negative = inhibition": "inactive: -24.3%"}
{"compound": "Cc1c(Cl)cccc1NC(=S)NCc1cccs1", "Potency": "inconclusive: 39.8 µM [inhibitor, single point]"}
{"compound": "CCCc1nc2ccccc2c(=O)n1/N=C/c1ccccc1O", "Potency": "inconclusive: 4.47 µM [inhibitor, full curve, poor fit]"}
{"compound": "Cc1cc(-c2ccc(N=Nc3cc(S(=O)(=O)O)c4ccccc4c3N)c(C)c2)ccc1N=Nc1cc(S(=O)(=O)O)c2ccccc2c1N", "Potency": "inconclusive: 14.1 µM [inhibitor, full curve, poor fit]"}
{"compound": "C=CCn1c(SCC(=O)NC2CCCC2)nc2scc(-c3ccco3)c2c1=O", "Potency": "inconclusive: 11.2 µM [inhibitor, partial curve]"}
{"compound": "Cc1nc2sccn2c1-c1csc(NCc2ccccc2)n1", "Potency": "inconclusive: 35.5 µM [inhibitor, single point]"}
{"compound": "CCc1ccc(S(=O)(=O)/N=C2/C=C(Sc3ncn[nH]3)C(=O)c3ccccc32)cc1", "Potency": "inconclusive: 14.1 µM [inhibitor, partial curve]"}
{"compound": "O=C(O)c1cc(S(=O)(=O)Nc2ccc3oc(=O)sc3c2)ccc1O", "Potency": "inconclusive: 28.2 µM [inhibitor, partial curve]"}
{"compound": "CC(=O)c1cnc2nc(C)nn2c1C", "activity change, negative = inhibition": "inactive: 0.815%"}
{"compound": "CCc1nnc(NS(=O)(=O)c2ccc(NC(=S)NC(=O)c3ccc(F)cc3)cc2)s1", "Potency": "inconclusive: 15.8 µM [inhibitor, partial curve]"}
{"compound": "CCOC(=O)C1=C(N)Oc2c(oc(CO)cc2=O)C1c1ccc(F)cc1", "note": "(stereo unspecified)", "activity change, negative = inhibition": "inactive: -2.6%"}
{"compound": "COC(=O)C1=C(C)NC2=C(C(=O)CCC2)C1c1cn(Cc2ccc(Cl)cc2Cl)nc1-c1ccccc1", "note": "(stereo unspecified)", "Potency": "inconclusive: 25.1 µM [inhibitor, partial curve, poor fit]"}
{"compound": "S=C(NCc1ccc(Cl)c(Cl)c1)Nc1ccc2c(c1)OCO2", "Potency": "inconclusive: 31.6 µM [inhibitor, single point]"}
{"compound": "Cc1cccc(NC(=S)N/N=C/c2ccc([N+](=O)[O-])s2)c1", "Potency": "inconclusive: 15.8 µM [inhibitor, partial curve]"}
{"compound": "COc1c(O)c(O)cc2c1oc1c3cc(C)ccc3oc(=O)c21", "Potency": "inconclusive: 0.355 µM [inhibitor, full curve, poor fit]"}
{"compound": "CCNC(=S)N/N=C/c1cccc(OCc2c(F)cccc2Cl)c1", "Potency": "inconclusive: 11.2 µM [inhibitor, partial curve]"}
{"compound": "CCCOc1ccc([N+](=O)[O-])cc1C1NC(=S)NC(c2ccccc2)=C1C(=O)OCC", "note": "(stereo unspecified)", "Potency": "inconclusive: 35.5 µM [inhibitor, single point]"}
{"compound": "Cc1ccc(S(=O)(=O)N2CCN(C(=O)C3COc4ccccc4O3)CC2)cc1C", "note": "(stereo unspecified)", "Potency": "inconclusive: 22.4 µM [inhibitor, partial curve]"}
{"compound": "COc1ccc(S(=O)(=O)Nc2cc(Sc3ncn[nH]3)c(O)c3ccccc23)cc1", "Potency": "inconclusive: 10 µM [inhibitor, partial curve]"}
{"compound": "COc1ccc(C2NC(=S)N3C(c4ccc(OC)cc4)NC(=S)N23)cc1", "note": "(stereo unspecified)", "Potency": "inconclusive: 22.4 µM [inhibitor, single point]"}
{"compound": "N#CC1=C(C2CC2)CC(c2ccccc2)C(C#N)=C1N", "note": "(stereo unspecified)", "Potency": "inconclusive: 12.6 µM [inhibitor, partial curve]"}
{"compound": "S=c1[nH]nc(-c2cc(-c3ccco3)[nH]n2)n1-c1ccccc1Cl", "Potency": "inconclusive: 11.2 µM [inhibitor, partial curve]"}
{"compound": "Cc1ccc(Cn2c(/C=C/c3ccco3)nc3ccccc32)cc1", "Potency": "inconclusive: 25.1 µM [inhibitor, single point]"}
{"compound": "O=C1NN(c2ccc(Cl)c(Cl)c2)C(=O)/C1=C/c1cccc(OC(=O)c2cccs2)c1", "Potency": "inconclusive: 15.8 µM [inhibitor, partial curve]"}
{"compound": "CCN(CC)S(=O)(=O)c1ccc(N/N=C/c2ccc(O)cc2O)nc1", "Potency": "inconclusive: 14.1 µM [inhibitor, partial curve]"}
{"compound": "Cc1onc(-c2ccccc2)c1C(=O)N[C@@H]1C(=O)N2[C@@H]1SC(C)(C)[C@@H]2C(=O)O", "activity change, negative = inhibition": "inactive: -1.58%"}
{"compound": "COc1cc(NC2=Nc3cccc4cccc2c34)cc(OC)c1OC", "Potency": "inconclusive: 39.8 µM [inhibitor, single point]"}
{"compound": "S=C(Nc1ccccc1)Nc1nc2ccccc2n1CCOc1ccc(Br)cc1", "Potency": "inconclusive: 4.47 µM [inhibitor, single point]"}
{"compound": "C=CCNc1ncnc2c1cnn2-c1ccc(Cl)cc1", "Potency": "inconclusive: 3.55 µM [inhibitor, single point]"}
{"compound": "Cc1cccc(NC(=S)NC(C)CCc2ccccc2)c1", "note": "(stereo unspecified)", "Potency": "inconclusive: 35.5 µM [inhibitor, single point]"}
{"compound": "Nc1nc(-c2ccc(Br)s2)c(Br)s1", "Potency": "inconclusive: 0.178 µM [inhibitor, full curve, poor fit]"}
{"compound": "O=C(/C=C/NNC(=O)c1ccc(Br)cc1)c1ccccc1", "Potency": "inconclusive: 31.6 µM [inhibitor, single point]"}
{"compound": "O=C1C(=C2CCCCC2)SC(=S)N1Cc1ccco1", "Potency": "inconclusive: 14.1 µM [inhibitor, partial curve]"}
{"compound": "CN1CCN(C2=C(Cl)C(=O)N(c3ccc(Cl)cc3)C2=O)CC1", "Potency": "inconclusive: 20 µM [inhibitor, partial curve]"}
{"compound": "O=c1c(-c2ccc(F)cc2)nc2cnc(Nc3ccccc3)nc2n1Cc1cccs1", "activity change, negative = inhibition": "inactive: -3.02%"}
{"compound": "COc1ccc(/C=N/NC(=O)c2nn(-c3ccc(Cl)cc3)c(=O)c3c(N)scc23)cc1", "Potency": "inconclusive: 35.5 µM [inhibitor, single point]"}
{"compound": "Cc1ccc(S(=O)(=O)/N=C2/C=C(Sc3ncn[nH]3)C(=O)c3ccccc32)cc1", "Potency": "inconclusive: 25.1 µM [inhibitor, single point]"}
{"compound": "CN(C)Cc1cc(C(F)(F)F)ccc1C(O)(c1ccccc1)c1ccccc1", "activity change, negative = inhibition": "inactive: 3.91% [at 11.4 µM]"}
{"compound": "S=C(Nc1ccc(Oc2ccccc2)cc1)NC1CCCCCC1", "Potency": "inconclusive: 35.5 µM [inhibitor, single point]"}
{"compound": "O=[n+]1c2c(n([O-])c3c1CCCC3)CCCCC2", "activity change, negative = inhibition": "inactive: 0.0336%"}
{"compound": "Cc1nc(NC(=O)CC(C)C)sc1-c1csc(Nc2ccc(Cl)cc2Cl)n1", "Potency": "inconclusive: 14.1 µM [inhibitor, partial curve]"}
{"compound": "C[C@H](NC(=O)/C(C#N)=C/c1ccc(O)c(O)c1)c1ccccc1", "Potency": "active: 20 µM"}
{"compound": "CCCCC(NS(=O)(=O)c1ccc(OC)cc1)C(=O)O", "note": "(stereo unspecified)", "activity change, negative = inhibition": "inactive: -4.92%"}
